Results as given in PMC4336329 (PLoS ONE, 2015).
In all, about 310,000 compounds went through this assay and about 2,200 (0.71%) showed an effect of 50% or more. Effects have a minus sign here. The list shows a part of the results.

The compounds below were run against human ether-à-go-go-related gene (hERG) potassium channel (human, UniProt Q12809) (assay: primary screen, population patch clamp on CHO cells stably expressing hERG).
Sequence of human ether-à-go-go-related gene (hERG) potassium channel (Q12809 whole entry, looked up): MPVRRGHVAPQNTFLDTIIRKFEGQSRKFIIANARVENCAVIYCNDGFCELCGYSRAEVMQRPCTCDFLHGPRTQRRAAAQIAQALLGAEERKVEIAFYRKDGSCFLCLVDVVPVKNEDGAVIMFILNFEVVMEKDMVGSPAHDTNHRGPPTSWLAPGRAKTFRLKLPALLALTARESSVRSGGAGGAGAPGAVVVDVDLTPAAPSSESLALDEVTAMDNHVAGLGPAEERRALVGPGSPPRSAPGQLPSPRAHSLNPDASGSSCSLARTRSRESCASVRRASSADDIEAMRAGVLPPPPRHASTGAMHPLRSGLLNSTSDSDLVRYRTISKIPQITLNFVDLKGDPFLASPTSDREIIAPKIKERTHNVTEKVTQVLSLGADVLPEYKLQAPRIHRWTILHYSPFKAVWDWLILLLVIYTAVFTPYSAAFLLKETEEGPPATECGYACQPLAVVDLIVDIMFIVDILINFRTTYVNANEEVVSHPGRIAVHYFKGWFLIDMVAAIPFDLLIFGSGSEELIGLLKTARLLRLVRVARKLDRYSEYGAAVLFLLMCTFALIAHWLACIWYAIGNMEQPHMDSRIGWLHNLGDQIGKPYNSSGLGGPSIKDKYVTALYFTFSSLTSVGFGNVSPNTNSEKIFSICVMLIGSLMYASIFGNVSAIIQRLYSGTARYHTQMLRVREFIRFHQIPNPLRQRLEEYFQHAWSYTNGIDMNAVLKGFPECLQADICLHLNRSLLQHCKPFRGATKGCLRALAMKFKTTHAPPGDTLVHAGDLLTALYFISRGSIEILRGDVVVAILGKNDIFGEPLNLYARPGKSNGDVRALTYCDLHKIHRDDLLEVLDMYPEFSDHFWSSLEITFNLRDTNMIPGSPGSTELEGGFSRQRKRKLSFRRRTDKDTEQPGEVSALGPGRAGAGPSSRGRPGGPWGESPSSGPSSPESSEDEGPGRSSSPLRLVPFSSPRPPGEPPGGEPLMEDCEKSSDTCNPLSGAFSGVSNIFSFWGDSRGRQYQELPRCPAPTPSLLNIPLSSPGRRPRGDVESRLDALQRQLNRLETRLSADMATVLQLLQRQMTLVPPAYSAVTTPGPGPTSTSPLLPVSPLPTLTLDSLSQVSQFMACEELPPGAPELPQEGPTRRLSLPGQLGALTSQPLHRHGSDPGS

| Compound | hERG current change (%, negative = inhibition) at 1uM [%] |
| --- | --- |
| CCOC(=O)N1CCN(C(=O)c2cnc3n(c2=O)CCS3)CC1 | 9.51 |
| CC(=O)Nc1ccc(NC(=O)COc2cc(C)cc3oc(=O)cc(C)c23)cc1 | 9.52 |
| O=C(NC1CCCC1)C1CCCN(S(=O)(=O)c2cccc3cccnc23)C1 (stereo not drawn) | 9.49 |
| O=c1[nH]c(CSc2nnc(-c3ccncc3)n2Cc2ccco2)nc2ccccc12 | -32.8 |
| O=C(COC(=O)c1ccccc1-n1cnnn1)c1ccc(Br)cc1 | 3.96 |
| Cc1cc(C)c(S(=O)(=O)c2c(C)cccc2C)c(OCC(C)C)n1 | 8.38 |
| Cn1c2c(c(=O)n(C)c1=O)C(NC(=O)c1ccco1)(C(F)(F)F)C(=O)N2 (stereo not drawn) | 13.6 |
| CC(C)NC(=O)CN(Cc1ccccc1)S(=O)(=O)c1ccccc1 | 7.8 |
| CCC(=NCCCn1ccnc1)c1c(O)n(Cc2ccccc2)c(=O)[nH]c1=O | -16.2 |
| Cc1cccc2c(C(=O)O)c3cccc(C)c3nc12 | 6.04 |
| CCc1ccc(OCC(=O)Nc2cc(S(=O)(=O)CC)ccc2O)cc1 | 9.67 |
| COc1ccc([C@H]2CC(=O)C=C(c3ccc4cc[nH]c4c3)C2)cc1 | -8.43 |
| CN(C)C(=O)Oc1ccc2nnc3ccnn3c2c1 | 10.8 |
| CCCCC1NC(C(=O)O)CS1 (stereo not drawn) | 11.3 |
| Cc1ccc(C(C(=O)NC2CCCCC2)N(C(=O)Cc2c[nH]c3ccccc23)c2ccccc2C)o1 (stereo not drawn) | 10.1 |
| COc1cccc(/C=C/C(=O)NCc2cn3cc(Cl)ccc3n2)c1OC | 13.2 |
| CC1Sc2ccc(C(=O)Nc3ncccc3O)cc2NC1=O (stereo not drawn) | 10.3 |
| Cc1ccc(C)c(NC(=O)CSc2nnc(-c3ccncc3)o2)c1 | 12.4 |
| Cc1ccccc1-n1c(SC/C(O)=C(\C#N)c2nc3ccccc3[nH]2)nnc1-c1ccncc1 | -0.208 |
| N#CC1=C(N)NC(SCc2ccc(Cl)cc2)=C(C#N)C12CCCCC2 | 7.96 |
| CC(C)CNC(=O)C1Nc2ccc(OC(F)(F)F)cc2C2C=CCC12 (stereo not drawn) | 12.7 |
| Cn1cc(S(=O)(=O)N2CCOCC2)cc1C(=O)Nc1ccc(Cl)cc1 | -7.1 |
| O=C(Nc1ccc(C(=O)NCc2ccccc2Cl)cc1)C1=CSCCO1 | 6.1 |
| O=C(NC1CCCCCC1)C1CCN(S(=O)(=O)c2ccccc2)CC1 | 11.1 |
